Source: the supplement of paper PMC4466236
In all, about 33,000 sequences were measured (“E-score (dimensionless, -0.5 to 0.5)”: median about -0.058, highest 2% from about 0.35 on). Some of the results follow.

What follows are sequences tested on MvaT (assay: PBM 8-mer E-score (mean of HK and ME arrays) (E-score (dimensionless, -0.5 to 0.5)); higher = stronger relative binding preference; most listed sequences are background and not binding sites).
Summary of the method: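 Full-length P. aeruginosa MvaT, with glutathione S-transferase fused to its N-terminus (cloned into pTH6838 by isothermal assembly), was tested by protein binding microarray using a previously described protocol. Two universal double-stranded 60-mer arrays (ME and HK) were used, each with a constant 25-mer primer region and a variable 35-mer region covering all 8-mers. The rank-based 8-mer E-score (-0.5 to 0.5) is the mean of the two arrays, parsed with a custom Python script.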
With CCATGTAC the “PBM 8-mer E-score” value was 0.104. For CGGCCTTC, the “PBM 8-mer E-score” value was -0.251. GGTTTGTA was tested, and the “PBM 8-mer E-score” value was 0.0982. In the case of AAATCGAG, the “PBM 8-mer E-score” value is reported as 0.0222. ACCAGGGG was tested, and the “PBM 8-mer E-score” value was -0.324. For GCCGTAAC, the “PBM 8-mer E-score” value was -0.0591. In the case of CTGTTAAA, the “PBM 8-mer E-score” value is reported as 0.175. In the case of CGCTGCAC, the “PBM 8-mer E-score” value is reported as -0.196. For GTCTCATA, the “PBM 8-mer E-score” value was 0.0652. For CTTCGCAC, the “PBM 8-mer E-score” value was -0.111. For TGGAACAA, the “PBM 8-mer E-score” value was 0.0976. AATGCGCA was tested, and the “PBM 8-mer E-score” value was 0.0405. For AGTTACGG, the “PBM 8-mer E-score” value was 0.0999. With ATGTATTG the “PBM 8-mer E-score” value was 0.244. For AATTCCTG, the “PBM 8-mer E-score” value was 0.194. With GTGCGTAA the “PBM 8-mer E-score” value was 0.0896. In the case of ACAAGAGC, the “PBM 8-mer E-score” value is reported as -0.05. In the case of CAGACAGC, the “PBM 8-mer E-score” value is reported as -0.188. With TCACCACA the “PBM 8-mer E-score” value was 0.0522. For ATTACAAA, the “PBM 8-mer E-score” value was 0.218. CAGGTATC was tested, and the “PBM 8-mer E-score” value was -0.174. For AACAATAC, the “PBM 8-mer E-score” value was 0.254. In the case of CATTTTTC, the “PBM 8-mer E-score” value is reported as 0.0773. GAAATGGC was tested, and the “PBM 8-mer E-score” value was -0.0838. AAAAGCGC was tested, and the “PBM 8-mer E-score” value was 0.163. For CAGTTACC, the “PBM 8-mer E-score” value was 0.143. With GATAAATC the “PBM 8-mer E-score” value was 0.137. For ACGGGACT, the “PBM 8-mer E-score” value was 0.0339. AACTAACC was tested, and the “PBM 8-mer E-score” value was 0.0709. For ATTGTCAA, the “PBM 8-mer E-score” value was 0.2. In the case of ACCTAAGT, the “PBM 8-mer E-score” value is reported as 0.00894. For CGAGAGCC, the “PBM 8-mer E-score” value was -0.0802. For AGCCTAGA, the “PBM 8-mer E-score” value was -0.137. With CAGCGGTA the “PBM 8-mer E-score” value was -0.068. In the case of CATAGAAG, the “PBM 8-mer E-score” value is reported as 0.0245. ACGCCGCA was tested, and the “PBM 8-mer E-score” value was -0.156. TCCCTCCA was tested, and the “PBM 8-mer E-score” value was -0.267. CGTAGGGC was tested, and the “PBM 8-mer E-score” value was -0.248. In the case of AATTGACA, the “PBM 8-mer E-score” value is reported as 0.185. AATACTGC was tested, and the “PBM 8-mer E-score” value was 0.182. In the case of CAGCCGGA, the “PBM 8-mer E-score” value is reported as -0.269. For AAGTATAA, the “PBM 8-mer E-score” value was 0.379. For TCGAATCA, the “PBM 8-mer E-score” value was -0.0287. GCCCACAA was tested, and the “PBM 8-mer E-score” value was -0.0229. In the case of ACGGCACC, the “PBM 8-mer E-score” value is reported as -0.0496. In the case of ACTCCTTA, the “PBM 8-mer E-score” value is reported as 0.118. For CATTCCTA, the “PBM 8-mer E-score” value was -0.0168. AGCTCGAA was tested, and the “PBM 8-mer E-score” value was -0.137. For CAATGGCG, the “PBM 8-mer E-score” value was -0.206. TCGAGGCA was tested, and the “PBM 8-mer E-score” value was -0.216. In the case of GTGCCGCA, the “PBM 8-mer E-score” value is reported as -0.175. With TCATTCCA the “PBM 8-mer E-score” value was -0.127. For ACATTGTG, the “PBM 8-mer E-score” value was 0.0981. With ACATGGCA the “PBM 8-mer E-score” value was -0.0514. AGAGGGGG was tested, and the “PBM 8-mer E-score” value was -0.338. With ACGCGAAG the “PBM 8-mer E-score” value was -0.119. For AAACACGG, the “PBM 8-mer E-score” value was -0.0269. ACGTGGCC was tested, and the “PBM 8-mer E-score” value was -0.18. In the case of CGTTTCGA, the “PBM 8-mer E-score” value is reported as -0.0587. For AAACTACC, the “PBM 8-mer E-score” value was 0.176. For ATTAATTA, the “PBM 8-mer E-score” value was 0.461. AGGAGTGA was tested, and the “PBM 8-mer E-score” value was -0.184. With CAACCCGA the “PBM 8-mer E-score” value was -0.0421. With TCTTCCCA the “PBM 8-mer E-score” value was -0.122. For ACCGTCAT, the “PBM 8-mer E-score” value was -0.0509. With ACCACTAG the “PBM 8-mer E-score” value was -0.22. In the case of CCTCGACG, the “PBM 8-mer E-score” value is reported as -0.311. For CGGCCCAG, the “PBM 8-mer E-score” value was -0.264. CAGGGGTA was tested, and the “PBM 8-mer E-score” value was -0.0465. CGCTAGCG was tested, and the “PBM 8-mer E-score” value was -0.163. In the case of AACCTTGT, the “PBM 8-mer E-score” value is reported as -0.0261. CCCGTCCG was tested, and the “PBM 8-mer E-score” value was -0.218. CCAATCCA was tested, and the “PBM 8-mer E-score” value was -0.0265. With ACTCCAGC the “PBM 8-mer E-score” value was -0.16. AAGATGCT was tested, and the “PBM 8-mer E-score” value was -0.126. In the case of GCGACAGC, the “PBM 8-mer E-score” value is reported as -0.0691. For AAGAATGA, the “PBM 8-mer E-score” value was 0.141. With GCGGCGTA the “PBM 8-mer E-score” value was -0.061. With AACCCCAC the “PBM 8-mer E-score” value was -0.189. In the case of GACTCCCC, the “PBM 8-mer E-score” value is reported as -0.285. In the case of CAAGCACG, the “PBM 8-mer E-score” value is reported as -0.238. With AACCCCAT the “PBM 8-mer E-score” value was -0.0866. For AACCCAGC, the “PBM 8-mer E-score” value was -0.0668. With GCCTATAA the “PBM 8-mer E-score” value was 0.197. With GCGGACAC the “PBM 8-mer E-score” value was -0.229. For CAACCCCG, the “PBM 8-mer E-score” value was -0.222. For CGAACTCC, the “PBM 8-mer E-score” value was -0.197. With GCCTCAGA the “PBM 8-mer E-score” value was -0.182. With AATTGTCT the “PBM 8-mer E-score” value was 0.0935. In the case of TACCGATA, the “PBM 8-mer E-score” value is reported as 0.159. In the case of AGGGTTGG, the “PBM 8-mer E-score” value is reported as -0.221. With CAATTTTA the “PBM 8-mer E-score” value was 0.293. GCTCCGTA was tested, and the “PBM 8-mer E-score” value was -0.0348. In the case of ATATATAC, the “PBM 8-mer E-score” value is reported as 0.464. In the case of CATTCAAA, the “PBM 8-mer E-score” value is reported as 0.088. For AGCTCCCG, the “PBM 8-mer E-score” value was -0.29. With GTAGGAAA the “PBM 8-mer E-score” value was -0.101. For AACCAGGG, the “PBM 8-mer E-score” value was -0.346. In the case of TATATCCA, the “PBM 8-mer E-score” value is reported as 0.338. In the case of ATGCAACA, the “PBM 8-mer E-score” value is reported as 0.0781. In the case of CACAGTCG, the “PBM 8-mer E-score” value is reported as -0.175. In the case of AAAGCTGG, the “PBM 8-mer E-score” value is reported as -0.0254. In the case of GTGTCAAC, the “PBM 8-mer E-score” value is reported as -0.0279. With AGAATTTG the “PBM 8-mer E-score” value was 0.161. ATGAGACG was tested, and the “PBM 8-mer E-score” value was -0.229. TGAGCCCA was tested, and the “PBM 8-mer E-score” value was -0.292. ACAGAGGA was tested, and the “PBM 8-mer E-score” value was -0.0596. For ACGGATCG, the “PBM 8-mer E-score” value was -0.123. For AGACCCCA, the “PBM 8-mer E-score” value was -0.212. For ACCGGAGG, the “PBM 8-mer E-score” value was -0.129. For GATCAGCA, the “PBM 8-mer E-score” value was -0.235. TAAATCAA was tested, and the “PBM 8-mer E-score” value was 0.341. For AGGATCGG, the “PBM 8-mer E-score” value was -0.204. For AGACCCGC, the “PBM 8-mer E-score” value was -0.237. For AATAAAGC, the “PBM 8-mer E-score” value was 0.292. For GAAATCAA, the “PBM 8-mer E-score” value was -0.00989. With CAGTTCGC the “PBM 8-mer E-score” value was -0.083. In the case of CGATAGAA, the “PBM 8-mer E-score” value is reported as 0.0594. With CTTGGCGC the “PBM 8-mer E-score” value was -0.187. With CATATTGG the “PBM 8-mer E-score” value was 0.0502. For AGGTTCTA, the “PBM 8-mer E-score” value was -0.057. With ATCCACGA the “PBM 8-mer E-score” value was 0.038. With CAAGCAGC the “PBM 8-mer E-score” value was -0.126. GAGGGGGC was tested, and the “PBM 8-mer E-score” value was -0.357. ATACGCCC was tested, and the “PBM 8-mer E-score” value was -0.117. For CATTACTA, the “PBM 8-mer E-score” value was 0.263. With CACTGTAA the “PBM 8-mer E-score” value was 0.216. CTGACACA was tested, and the “PBM 8-mer E-score” value was 0.0556. For ATGTTCAG, the “PBM 8-mer E-score” value was 0.0976. With ATAAGAAG the “PBM 8-mer E-score” value was 0.273. With ACAAGAGT the “PBM 8-mer E-score” value was 0.0702. With GCTCCGGA the “PBM 8-mer E-score” value was -0.275. With CGCGTCTA the “PBM 8-mer E-score” value was 0.000191. With AGCAACAG the “PBM 8-mer E-score” value was 0.00542. ACGTATTG was tested, and the “PBM 8-mer E-score” value was 0.183. With GCACGGAC the “PBM 8-mer E-score” value was -0.347. For TGCTTACA, the “PBM 8-mer E-score” value was -0.13. For ACGGTCTA, the “PBM 8-mer E-score” value was -0.0448. For AAGTCGAG, the “PBM 8-mer E-score” value was -0.181. CTGGCGAA was tested, and the “PBM 8-mer E-score” value was -0.0593. With CCACAGGG the “PBM 8-mer E-score” value was -0.258. With AGTTGAGC the “PBM 8-mer E-score” value was 0.0207. In the case of AGAAGGTA, the “PBM 8-mer E-score” value is reported as -0.0116. With CGTGGTCC the “PBM 8-mer E-score” value was -0.173. For CCTATGAC, the “PBM 8-mer E-score” value was -0.17. CGATGTCC was tested, and the “PBM 8-mer E-score” value was -0.144. With AAAATGCT the “PBM 8-mer E-score” value was 0.0072. With ATCAGTGA the “PBM 8-mer E-score” value was -0.0827. For GGAGTTAA, the “PBM 8-mer E-score” value was 0.193. For GGAAACTA, the “PBM 8-mer E-score” value was 0.181. For ATTTCGCG, the “PBM 8-mer E-score” value was 0.0681. AACTCTGC was tested, and the “PBM 8-mer E-score” value was 0.143. In the case of AAGTTGGG, the “PBM 8-mer E-score” value is reported as 0.192. With CTCCGAGA the “PBM 8-mer E-score” value was -0.06. For TACCTCTA, the “PBM 8-mer E-score” value was 0.0222. With ACGACGGA the “PBM 8-mer E-score” value was 0.000212. For CAGGGAGA, the “PBM 8-mer E-score” value was -0.252. With TCATGCGA the “PBM 8-mer E-score” value was -0.0834. In the case of CGAGGCAG, the “PBM 8-mer E-score” value is reported as -0.287. With ATTTCAAC the “PBM 8-mer E-score” value was 0.197. For ATCTGAGC, the “PBM 8-mer E-score” value was -0.103. With CTGAGATC the “PBM 8-mer E-score” value was -0.185. In the case of AGAAGGAC, the “PBM 8-mer E-score” value is reported as -0.234. GAAAACTC was tested, and the “PBM 8-mer E-score” value was -0.159. ATTCGTTC was tested, and the “PBM 8-mer E-score” value was -0.00457. With GAAAATAA the “PBM 8-mer E-score” value was 0.349. With CATTGCTC the “PBM 8-mer E-score” value was -0.0978. ACCAGGTG was tested, and the “PBM 8-mer E-score” value was -0.204. GAGACCCA was tested, and the “PBM 8-mer E-score” value was -0.162. With AACTAAGC the “PBM 8-mer E-score” value was 0.168. With GTTCATTA the “PBM 8-mer E-score” value was 0.158. With GTTTAGAA the “PBM 8-mer E-score” value was 0.0138.
